± gives the standard deviation of the averaged measurements. The list shows a part of the results.

The assay relates to PfAP2-EXP AP2 domain (GST-tagged). Nature of the assay: gcPBM binding intensity (ln(normalized median fluorescence intensity)); higher = stronger DNA binding. Summed up: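 After 1 h on an Agilent 4 × 180k array of primer-extended double-stranded 36-bp intergenic genomic probes and negative controls, bound GST-tagged P. falciparum DNA-binding domains were detected with Alexa488 anti-GST antibody and scanned at 488 nm. The domains had been expressed in E. coli, and binding took place in 1× PBS with 1% milk, 0.2 mg/ml BSA, 0.5% salmon testes DNA and 0.03% Triton X-100. Binding intensity is the highest Masliner-normalised natural-log median intensity across replicate spots of either probe orientation.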
Consider “AGAAAGTAAAGCTGTTGTACTATTATATATATTTTA [XGTACX_site8090]”, for which the “gcPBM binding intensity (ln)” value was 8.59 ± 0.31.

As to “TTTCTTTTTAAATAATAATGTATAATAAAAAGTTCA [TGCATGCA_negctrl_site195]”, the “gcPBM binding intensity (ln)” value is 8.11 ± 0.35.

As for “TTTGTTTGATATATGTGTACATATATATATTATGCT [XGTACX_site3522]”, the “gcPBM binding intensity (ln)” value is 8.67 ± 0.34.

With AAGTACAATTCATGTATGCACTTTATTATATTTTAT, the “gcPBM binding intensity (ln)” value came out at 8.35 ± 0.29.

For the sequence “TATAATATGTATATCTGTACATATTTTAAATCTAAT [XGTACX_site2426]”, the “gcPBM binding intensity (ln)” value worked out at 8.08 ± 0.24.

“AAGATAAAATAATAAAGTACACATATAAATTGAAAA [XGTACX_site2113]”: the “gcPBM binding intensity (ln)” value is 8.85 ± 0.62.

As to “ATCATATCCACCAAATGAATAATATAAAATAATATA [XGTACX_negctrl_site193]”, the “gcPBM binding intensity (ln)” value is 8.44 ± 0.57.

“AAATAACATAATAAGGGTACATTAATTTCGATAATG [XGTACX_site835]”: the “gcPBM binding intensity (ln)” value was 8.51 ± 0.25.

On to “TATATATATATATATGCACACATTTATACAATTTTA [CACACA_site2986]”, for which the “gcPBM binding intensity (ln)” value was determined as 10.2 ± 0.3.

With “ATCAAATTATAATCATGTACAAATAAAAAAAAAAAA [XGTACX_site313]”, the “gcPBM binding intensity (ln)” value worked out at 8.43 ± 0.53.

On to “AGAAAAAAAAAAAAAAAACACACGGTACATCCAAAG [CACACA_site124]”, for which the “gcPBM binding intensity (ln)” value was 8.66 ± 0.53.

Take “AAATATCTACAAATATGTACATATTTTTTTTGGCTT [XGTACX_site6301]”: the “gcPBM binding intensity (ln)” value stood at 8.72 ± 0.26.

Consider “TATTTTGTCATAGAACGTACTTATAAATATTTTTTT [XGTACX_site8424]”, for which the “gcPBM binding intensity (ln)” value worked out at 8.67 ± 0.37.

On to “ATAGAAGCTGTTGACGAAGAAAAAAAAAAAAAAAAA [CACACA_negctrl_site110]”, for which the “gcPBM binding intensity (ln)” value is 8.37 ± 0.56.

Take “TAGATATTTTTGAAAAGTACAAATTTTTAAAAATTA [XGTACX_site4420]”: the “gcPBM binding intensity (ln)” value is 8.34 ± 0.33.

As to “GTATGATTACAAGAAAGTAGTCCACTTTAACAACAA [CACACA_negctrl_site1304]”, the “gcPBM binding intensity (ln)” value came to 8.59 ± 0.37.

As for “TTATATAATGACAAAAAAAAAAAAAAAAAAAAAAAA [CACACA_negctrl_site1467]”, the “gcPBM binding intensity (ln)” value amounted to 8.04 ± 0.36.

Regarding “TAATTTATCCTATAATGTACTTATAAAATATATCAT [XGTACX_site1460]”, the “gcPBM binding intensity (ln)” value worked out at 8.32 ± 0.26.

As for “AGTCCATTTTATTATTGTACATATTAATTTATATCA [XGTACX_site672]”, the “gcPBM binding intensity (ln)” value stood at 9.08 ± 0.3.

In the case of “ATTCAGAGTATATAAAAATTAATATATACATAATAT [CACACA_negctrl_site1782]”, the “gcPBM binding intensity (ln)” value was found to be 8.44 ± 0.58.

In the case of “ATGTACATAAACCGCACACATATAAAAAAATAAATA [CACACA_site5571]”, the “gcPBM binding intensity (ln)” value is 8.71 ± 0.35.

Regarding “ATATATATATAAATATGTACATATATACATATATAC [XGTACX_site2374]”, the “gcPBM binding intensity (ln)” value is 9.515 ± 0.092.

As to “AATATTTTGTTATTTATTTAATCTAATATTACTATC [CACACA_negctrl_site4]”, the “gcPBM binding intensity (ln)” value came to 8.43 ± 0.16.

In the case of “TAGGAAAATTACAAAAGTACTTGGCACATAATAATG [XGTACX_site6005]”, the “gcPBM binding intensity (ln)” value stood at 8.75 ± 0.38.

In the case of “AAAAAAAAAAAATACACACAAACACAAATTAAATAA [CACACA_site3809]”, the “gcPBM binding intensity (ln)” value amounted to 8.6 ± 0.62.

For “ATTATAGAATATTGAAGTACAAAATTTAAAATAAGT [XGTACX_site1468]”, the “gcPBM binding intensity (ln)” value stood at 8.75 ± 0.2.

As to “ACATAATATACTATTGTGCACATATATATATATATA [GTGCAC_site9761]”, the “gcPBM binding intensity (ln)” value was found to be 10.1 ± 0.45.

For the sequence “GTTAATTTAATTATATGTACGAAAAAATACGTTATA [XGTACX_site1306]”, the “gcPBM binding intensity (ln)” value stood at 8.46 ± 0.28.

On to “TTTTTATTTTTTTATTTCTTATCAAATAAAATATAT [XGTACX_negctrl_site537]”, for which the “gcPBM binding intensity (ln)” value turned out to be 8.32 ± 0.36.

Consider “TTACAAAAAGGTAATTTACACACTGCATATAGGAAT [CACACA_site8956]”, for which the “gcPBM binding intensity (ln)” value is 8.87 ± 0.36.

As to “TCTTAATATGGTAATACACACTAATATACTTTTGTT [CACACA_site4969]”, the “gcPBM binding intensity (ln)” value worked out at 8.55 ± 0.31.

“ACCCTTCAATTTAATTGTACAAGAAAAAAAAAAAAA [XGTACX_site2927]”: the “gcPBM binding intensity (ln)” value amounted to 8.54 ± 0.54.

Turning to “AAATAATCATAAAATAAACACACATATATAAATATA [CACACA_site7981]”, the “gcPBM binding intensity (ln)” value is 8.52 ± 0.44.

Turning to “TGCTCAAACTTTACAAATGAACGAATATAAAAAAAG [CACACA_negctrl_site541]”, the “gcPBM binding intensity (ln)” value was determined as 8.82 ± 0.59.

Consider “ATTCTTTTTTTTTTCTTATATTCTAATCACCACCTT [XGTACX_negctrl_site179]”, for which the “gcPBM binding intensity (ln)” value turned out to be 8.72 ± 0.56.

As to “TAAAATTAAATGAAATCATTATTCATTTTTATTTTA [CACACA_negctrl_site1281]”, the “gcPBM binding intensity (ln)” value came out at 7.68 ± 0.4.

For the sequence “CATATAAATAAACACACACACACATATATATATATA [CACACA_site5309]”, the “gcPBM binding intensity (ln)” value is 10.2 ± 0.29.

With “AATAGGTGCCTTTTTTCACACACATGTCAACTAAAT [CACACA_site8846]”, the “gcPBM binding intensity (ln)” value was determined as 8.84 ± 0.28.

“TTTGGTAAGCGTGTCGCATGTAGAACAAGTCTACAT [TGCATGCA_site577]”: the “gcPBM binding intensity (ln)” value turned out to be 8.52 ± 0.42.

Regarding “ATGAAATTATTATATAAACACACATTTATTTTATTT [CACACA_site8597]”, the “gcPBM binding intensity (ln)” value stood at 8.17 ± 0.3.

With “TAAATACAGACATACACACATACACCCACATATATA [CACACA_site547]”, the “gcPBM binding intensity (ln)” value came to 8.7 ± 0.5.

In the case of “AGGAACATTTACGCCCCACACACCTACCAACAAAAA [CACACA_site3827]”, the “gcPBM binding intensity (ln)” value stood at 9.11 ± 0.64.

With “ATTAAAATGGAGTATTAATATGATATATATATATAT [GTGCAC_negctrl_site509]”, the “gcPBM binding intensity (ln)” value was found to be 10 ± 0.31.

In the case of “TATATATATATTTTTGGTACAGATATTTTCTTCTCT [XGTACX_site4432]”, the “gcPBM binding intensity (ln)” value came to 9.65 ± 0.18.
